# The source made the active and inactive calls. Unless noted, the call rests on the fitted dose curve; in most records, active means well fitted curve in the direction sought with a large enough effect in the repeat runs; inconclusive means weak or mixed curves; inactive means no such curve, though single readings can be large; an effect the other way counts as inactive or inconclusive.
# How the values were obtained:
# [1] = qHTS assay for identifying genotoxic compounds that show differential cytotoxicity against isogenic chicken DT40 cell lines with known DNA damage response pathways - Rad54/Ku70 mutant cell line (AID 743015); conditions: DT40 Rad54/Ku70 mutant viability, CellTiter-Glo, 40 h; activity change, negative = cytotoxicity: at 66.8 µM (top of the series); further: nearly all actives have a fitted effect of over 60% in size; on activity change, negative = cytotoxicity: on the % scale 0 is the no-effect control and ±100 the full control effect
# [2] = qHTS assay to identify small molecule antagonists of the estrogen receptor alpha (ER-alpha) signaling pathway using the BG1 cell line - cell viability counter screen (AID 743081); conditions: BG1Luc4E2 viability, CellTiter-Fluor, 22 h; activity change, negative = cytotoxicity: at 70.3 µM (top of the series) unless noted;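 further: compound given together with 17beta-estradiol as the ER stimulus; nearly all actives have a fitted effect of over 45% in size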
# [3] = qHTS assay to identify small molecule antagonists of the estrogen receptor alpha (ER-alpha) signaling pathway - cell viability counter screen (AID 743074; calls by dose curve;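 further: HEK293 cells carrying ER-alpha-UAS-bla reporter stimulated with 17beta-estradiol; nearly all actives have a fitted effect of over 45% in size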)
# [4] = qHTS assay to identify small molecule antagonists of the androgen receptor (AR) signaling pathway - cell viability counter screen (AID 743033; further: nearly all actives have a fitted effect of over 45% in size; on activity change, negative = cytotoxicity: on the % scale 0 is the no-effect control and ±100 the full control effect); conditions: AR-bla HEK293 viability, CellTiter-Glo luminescence, 16 h; activity change, negative = cytotoxicity: at 58.5 µM (top of the series) unless noted
# [5] = qHTS assay to identify small molecule antagonists of the thyroid receptor (TR) signaling pathway (AID 743065); further: nearly all actives have a fitted effect of over 55% in size
# Outline: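 GH3.TRE-Luc rat pituitary cells (two TREs driving luciferase) were dosed with compound, then stimulated with 1 nM T3 (final) for 23.5 h at 37 C. ONE-Glo luminescence was the read-out, with CellTiter-Fluor fluorescence as the cytotoxicity counter-screen.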
# [6] = biological target: Estrogen receptor (Homo sapiens) (UniProt P03372); assay: qHTS assay to identify small molecule antagonists of the estrogen receptor alpha (ER-alpha) signaling pathway (AID 743069; active means well fitted curve in the direction sought with a large enough effect in the signal ratio in the repeat runs, not every such curve was filed as active; inconclusive means weak or mixed curves, or effect the other way; inactive means no such curve, though single readings can be large or run the other way; the % refers to the signal ratio); conditions: HEK293 ER-alpha-UAS-bla, beta-lactamase ratio, antagonist mode; activity, negative = inhibition: at 69.4 µM (top of the series) unless noted
# Outline: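 HEK293 ER-alpha-UAS-bla GripTite cells, held overnight in 2% charcoal-stripped FBS, 5,000 cells/well, preincubated 4 h, then compound plus 17beta-estradiol for 18 h at 37C. Beta-lactamase read by LiveBLAzer B/G FRET substrate, 2 h at room temperature.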
# [7] = biological target: Estrogen receptor (Homo sapiens) (UniProt P03372); assay: qHTS assay to identify small molecule agonists of the estrogen receptor alpha (ER-alpha) signaling pathway (AID 743075; calls by dose curve)
# [8] = biological target: Estrogen receptor (Homo sapiens) (UniProt P03372); assay: qHTS assay to identify small molecule agonists of the estrogen receptor alpha (ER-alpha) signaling pathway using the BG1 cell line (AID 743079); conditions: BG1Luc4E2 cells, ERE-luciferase agonist, 22 h; activation: at 70.3 µM (top of the series) unless noted; further: nearly all actives have a fitted effect of over 20% in size; on activation: on the % scale 0 is the no-effect control and ±100 the full control effect
# [9] = qHTS assay to identify small molecule antagonists of the thyroid receptor (TR) signaling pathway - cell viability counter screen (AID 743064); conditions: GH3.TRE-Luc viability, CellTiter-Fluor, 24 h; activity change, negative = cytotoxic: at 70.3 µM (top of the series) unless noted; further: nearly all actives have a fitted effect of over 50% in size; on activity change, negative = cytotoxic: on the % scale 0 is the no-effect control and ±100 the full control effect
# Outline: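 Fluorescence from CellTiter-Fluor, added after 23.5 h exposure at 37 °C, reported viability of GH3.TRE-Luc cells co-treated with compound and 1 nM T3. Measured in the same wells as the luciferase TR readout.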
# [10] = biological target: Androgen receptor (Homo sapiens) (UniProt P10275); assay: qHTS assay to identify small molecule antagonists of the androgen receptor (AR) signaling pathway (AID 743035; active means well fitted inhibition curve with a large enough effect in the signal ratio in the repeat runs, not every such curve was filed as active; inconclusive means weak or mixed curves, or effect the other way; inactive means no such curve, though single readings can be large or run the other way; the % refers to the signal ratio); conditions: HEK293 AR-UAS-bla, R1881-stimulated, beta-lactamase FRET, 16 h; activity change, negative = inhibition: at 58.5 µM (top of the series) unless noted
# Outline: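 Cell line: GeneBLAzer AR-UAS-bla GripTite (HEK293). Stimulus: R1881 added after compound. Exposure: 16 h, 37C, 5% CO2. Readout: LiveBLAzer B/G FRET fluorescence after 2 h at room temperature.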
# [11] = biological target: Androgen receptor (Homo sapiens) (UniProt P10275); assay: qHTS assay to identify small molecule agonists of the androgen receptor (AR) signaling pathway (AID 743036; active means well fitted activation curve with a large enough effect in the signal ratio in the repeat runs, with a control signal flat, not every such curve was filed as active; inconclusive means weak or mixed curves, or effect the other way; inactive means no such curve, though single readings can be large or run the other way; the % refers to the signal ratio); conditions: HEK293 AR-UAS-bla GripTite, beta-lactamase FRET ratio, 16 h; activation: at 62.4 µM (top of the series) unless noted
# Outline: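 Fluorescence from a beta-lactamase FRET substrate served as read-out in AR-UAS-bla GripTite HEK293 cells. Cells were treated with DMSO-dissolved compounds for 16 h at 37C, then with LiveBLAzer B/G substrate for 2 h at room temperature.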
# [12] = qHTS assay to identify small molecule antagonists of the estrogen receptor alpha (ER-alpha) signaling pathway using the BG1 cell line (AID 743080; calls by dose curve;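 further: BG1 cells stimulated with 17beta-estradiol alongside compound; nearly all actives have a fitted effect of over 25% in size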); conditions: BG1Luc4E2 ERE-luciferase antagonist mode, luminescence; activity change, negative = inhibition: at 70.3 µM (top of the series) unless noted
# Outline: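 BG1Luc4E2, endogenous ER-alpha, 4xERE-luc; 5 d charcoal-stripped FBS, phenol red free; 24 h plating; cpd + 17beta-estradiol 21.5 h, 37 C/5% CO2; CellTiter-Fluor viability 30 min, then ONE-Glo luciferase 30 min RT.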
# Aromatase (Homo sapiens) = Aromatase (Homo sapiens) (UniProt P11511); assay: qHTS assay to identify aromatase inhibitors (AID 743083); conditions: MCF-7 aro ERE, testosterone-driven ERE luciferase, 24 h; activity, negative = inhibition: at 70.3 µM (top of the series); further: nearly all actives have a fitted effect of over 55% in size
# Potency means the concentration at half of the fitted maximal effect; tags describe the fitted curve by direction and shape or compound fluorescence and quenching.
# Sequence of UniProt P03372 (P03372 whole entry, looked up): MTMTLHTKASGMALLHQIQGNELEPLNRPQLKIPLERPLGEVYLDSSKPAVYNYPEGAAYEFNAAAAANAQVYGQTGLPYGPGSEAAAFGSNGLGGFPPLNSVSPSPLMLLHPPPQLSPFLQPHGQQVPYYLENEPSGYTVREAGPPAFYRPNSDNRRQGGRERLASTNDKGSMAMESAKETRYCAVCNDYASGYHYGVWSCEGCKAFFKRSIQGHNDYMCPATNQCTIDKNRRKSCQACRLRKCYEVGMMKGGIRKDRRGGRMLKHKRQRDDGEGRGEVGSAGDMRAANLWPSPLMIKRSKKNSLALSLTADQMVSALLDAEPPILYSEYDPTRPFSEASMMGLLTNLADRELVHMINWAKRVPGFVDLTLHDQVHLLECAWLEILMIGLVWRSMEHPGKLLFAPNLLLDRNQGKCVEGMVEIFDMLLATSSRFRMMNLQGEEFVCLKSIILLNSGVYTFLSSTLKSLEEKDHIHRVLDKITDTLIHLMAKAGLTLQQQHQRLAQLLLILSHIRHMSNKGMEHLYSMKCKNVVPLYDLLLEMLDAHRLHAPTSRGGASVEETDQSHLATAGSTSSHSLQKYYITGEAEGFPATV
# Sequence of UniProt P10275 (P10275 whole entry, looked up): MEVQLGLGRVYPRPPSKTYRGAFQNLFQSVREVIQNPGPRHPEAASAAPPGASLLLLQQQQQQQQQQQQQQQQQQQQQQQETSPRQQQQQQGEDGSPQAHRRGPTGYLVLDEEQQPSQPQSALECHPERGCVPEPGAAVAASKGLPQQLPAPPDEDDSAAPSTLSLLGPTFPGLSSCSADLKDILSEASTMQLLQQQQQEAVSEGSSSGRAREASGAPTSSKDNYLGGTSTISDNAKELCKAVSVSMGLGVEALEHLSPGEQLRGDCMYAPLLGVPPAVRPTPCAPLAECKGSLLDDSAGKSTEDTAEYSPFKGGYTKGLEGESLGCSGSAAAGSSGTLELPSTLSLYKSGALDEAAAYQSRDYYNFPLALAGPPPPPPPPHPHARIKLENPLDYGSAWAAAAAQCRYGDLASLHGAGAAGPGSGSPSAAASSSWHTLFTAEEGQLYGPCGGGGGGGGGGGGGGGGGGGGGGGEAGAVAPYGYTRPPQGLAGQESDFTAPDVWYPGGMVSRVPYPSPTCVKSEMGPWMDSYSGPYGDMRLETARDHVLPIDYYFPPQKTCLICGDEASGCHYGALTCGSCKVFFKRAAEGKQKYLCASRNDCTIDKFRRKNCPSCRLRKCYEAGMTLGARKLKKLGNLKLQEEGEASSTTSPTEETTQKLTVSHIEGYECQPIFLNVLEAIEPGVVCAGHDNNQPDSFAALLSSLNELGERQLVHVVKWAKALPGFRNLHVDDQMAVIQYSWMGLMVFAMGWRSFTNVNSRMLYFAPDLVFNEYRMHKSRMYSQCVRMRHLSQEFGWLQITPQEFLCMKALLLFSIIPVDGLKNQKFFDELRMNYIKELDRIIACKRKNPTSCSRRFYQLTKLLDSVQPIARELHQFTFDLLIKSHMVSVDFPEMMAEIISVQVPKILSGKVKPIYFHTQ
# Sequence of UniProt P11511 (P11511 whole entry, looked up): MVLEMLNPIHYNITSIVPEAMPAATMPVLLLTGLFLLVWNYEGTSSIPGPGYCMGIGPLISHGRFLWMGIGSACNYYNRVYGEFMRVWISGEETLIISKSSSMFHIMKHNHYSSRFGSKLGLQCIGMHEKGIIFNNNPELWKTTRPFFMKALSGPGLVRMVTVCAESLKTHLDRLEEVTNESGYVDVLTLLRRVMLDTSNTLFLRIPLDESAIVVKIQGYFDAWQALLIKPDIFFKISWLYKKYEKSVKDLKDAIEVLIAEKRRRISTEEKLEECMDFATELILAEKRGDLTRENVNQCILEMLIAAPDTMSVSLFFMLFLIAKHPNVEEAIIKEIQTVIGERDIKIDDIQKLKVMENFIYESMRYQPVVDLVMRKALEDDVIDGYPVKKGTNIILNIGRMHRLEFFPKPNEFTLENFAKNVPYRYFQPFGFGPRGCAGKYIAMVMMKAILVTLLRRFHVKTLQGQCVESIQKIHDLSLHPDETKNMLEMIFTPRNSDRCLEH
smiles,measurement,setting,value
CCCCc1cc2ccccc2c(OCCN(C)C)n1,Potency,[1],inconclusive: 10.1 µM [cytotoxic]
same,Potency,[2],"inconclusive: 0.639 µM [rising, full curve]"
C=Cc1ccccn1,Potency,[1],inactive
same,Potency,[3],"inconclusive: 7.84 µM [rising, partial curve, poor fit]"
COc1c(C)c2c(c(O)c1C/C=C(\C)CCC(=O)O)C(=O)OC2,Potency,[1],active: 0.202 µM
same,Potency,[4],"inconclusive: 0.229 µM [cytotoxic, full curve]"
same,Potency,[5],active: 0.507 µM
same,Potency,[6],active: 0.512 µM [inconclusive]
same,Potency,[7],"inconclusive: 0.102 µM [cytotoxic, single point]"
same,activation,[8],inconclusive: 5.82% [phenotype inactive] [at 32.5 µM]
CCCCCOC(=O)Nc1nc(=O)n([C@@H]2O[C@H](C)[C@@H](O)[C@H]2O)cc1F,Potency,[1],inactive
same,Potency,[9],inactive
O=C1c2ccccc2Cc2ccccc21,Potency,[1],"inconclusive: 61.6 µM [cytotoxic, single point]"
same,Potency,[4],inactive
same,Potency,[6],"inconclusive: 4.4 µM [activator, full curve]"
same,Potency,[7],"inconclusive: 6.97 µM [activator, full curve]"
same,Potency,[2],"inconclusive: 38.8 µM [cytotoxic, partial curve]"
CC1(C)C(=O)N(Cl)C(=O)N1Br,Potency,[1],inactive
same,Potency,[2],inactive
Nc1nc(Cl)cc(Cl)n1,Potency,[1],"inconclusive: 68.6 µM [cytotoxic, single point]"
same,Potency,[9],"inconclusive: 68.6 µM [rising, partial curve, poor fit]"
same,Potency,[3],"inconclusive: 49 µM [cytotoxic, single point]"
O=[N+]([O-])c1ccc2c(c1)Cc1ccccc1-2,Potency,[1],inconclusive: 68.6 µM [cytotoxic]
same,Potency,[6],"inconclusive: 61.6 µM [falling, single point]"
same,Potency,[3],"inconclusive: 61.6 µM [cytotoxic, single point]"
same,Potency,[8],active: 13.7 µM
same,activation,[8],inconclusive: 10.4% [phenotype inactive]
COc1cc(C(C)=O)ccc1OCCCN1CCC(c2noc3cc(F)ccc23)CC1,Potency,[1],active: 16.8 µM
same,Potency,[9],active: 21.1 µM
same,Potency,[6],inactive
same,Potency,[2],"inconclusive: 15 µM [cytotoxic, partial curve, poor fit]"
Cc1cc(=O)oc2cc(O)cc(O)c12,Potency,[1],"inconclusive: 77.2 µM [cytotoxic, partial curve, poor fit]"
same,Potency,[10],"inconclusive: 12.3 µM [rising, partial curve]"
same,Potency,[11],"inconclusive: 34.8 µM [fluorescent, partial curve]"
same,Potency,[9],"inconclusive: 68.8 µM [rising, single point]"
same,Potency,[8],"inconclusive: 34.5 µM [inhibitor, partial curve, poor fit]"
same,Potency,[2],"inconclusive: 68.8 µM [rising, partial curve, poor fit]"
O=C1Nc2ccccc2C1(c1ccc(O)cc1)c1ccc(O)cc1,Potency,[1],"inconclusive: 68.6 µM [cytotoxic, single point]"
same,Potency,[6],active: 49 µM [inconclusive]
same,Potency,[8],"inconclusive: 0.306 µM [inhibitor, full curve]"
same,Potency,[12],"inconclusive: 0.486 µM [falling, full curve]"
same,Potency,[2],active: 0.969 µM
same,Potency,Aromatase (Homo sapiens),inactive
Cc1cccc(C(C)(C)C)c1O,Potency,[1],inactive
same,Potency,[9],inactive
same,"activity, negative = inhibition",[6],inconclusive: 34.1%
same,Potency,[12],inactive
O=C(c1ccc(O)c(O)c1)c1ccc(O)cc1O,Potency,[1],active: 8.62 µM
same,Potency,[9],inconclusive: 61 µM [cytotoxic]
same,Potency,[5],"inconclusive: 54.4 µM [inhibitor, partial curve, poor fit]"
same,Potency,[6],active: 34.6 µM [inconclusive]
same,Potency,[7],active: 3.46 µM [inconclusive]
same,Potency,[8],active: 3.85 µM
same,Potency,[2],"inconclusive: 68.5 µM [cytotoxic, single point]"
same,Potency,Aromatase (Homo sapiens),"inconclusive: 54.4 µM [inhibitor, partial curve]"
C[C@H]1[C@H](NC(=O)/C(=N/OC(C)(C)C(=O)O)c2csc(N)n2)C(=O)N1S(=O)(=O)O (stereo in doubt),Potency,[4],inactive
CCCCCCCCCCCCCCCCOP(=O)([O-])OCC[N+](C)(C)C,Potency,[4],"inconclusive: 0.0017 µM [cytotoxic, full curve]"
CCCCCCCCCCCCC,"activity change, negative = cytotoxicity",[4],inconclusive: -50.1% [cytotoxic]
Cc1c(C)c2c(c(C)c1OC(=O)c1cccnc1)CC[C@@](C)(CCC[C@H](C)CCC[C@H](C)CCCC(C)C)O2,Potency,[1],inactive
same,"activity change, negative = cytotoxic",[9],inconclusive: 30.2%

# — PubChem BioAssay (Tox21)
